Measured values: patent US20180312496A1, “BICYCLIC HETEROCYCLE DERIVATIVES AS BROMODOMAIN INHIBITORS” (ORION CORPORATION, priority 2015, published 2018)
Some entries share one result that the patent states for a list of compounds.

The compounds below were run against T1, Bet BRD4 bromodomain (Homo sapiens, UniProt O60885) (assay: Bet bromodomain TR-FRET assay). Conditions: displacement of 300 nM acetyl histone peptide substrate from Bet BRD4 bromodomain protein.
T1 construct: fused on or other part: An unnamed tag, implied by the XL-665 labelled antibody used for detection
Type: binding

Row | SMILES | IC50 [nM]
1 | COc1cc2c(cc1-c1c(C)noc1C)cc(-c1ccc(O)cc1)c(=O)n2CCc1ccc(Cl)cc1 [Compound 13, 1-(4-Chlorophenethyl)-6-(3,5-dimethylisoxazol-4-yl)-3-(4-hydroxyphenyl)-7-methoxyquinolin-2(1H)-one] | 1000 to 10000
2 | CCNC(=O)c1cc2cc(-c3c(C)noc3C)c(OC)cc2n(Cc2ccccn2)c1=O [Compound 29, 6-(3,5-Dimethylisoxazol-4-yl)-N-ethyl-7-methoxy-2-oxo-1-(pyridin-2-yl-methyl)-1,2-dihydroquinoline-3-carboxamide] | < 600
3 | COc1cc2c(cc1-c1c(C)noc1C)cc(C(=O)Nc1ccc(Cl)cc1)c(=O)n2Cc1ccccn1 [Compound 44, N-(4-Chlorophenyl)-6-(3,5-dimethylisoxazol-4-yl)-7-methoxy-2-oxo-1-(pyridin-2-ylmethyl)-1,2-dihydroquinoline-3-carboxamide] | 1000 to 10000
4 | COc1cc2c(cc1-c1c(C)noc1C)cc(CC(=O)N1CCC1)c(=O)n2Cc1ccccn1 [Compound 57, 3-(2-(Azetidin-1-yl)-2-oxoethyl)-6-(3,5-dimethylisoxazol-4-yl)-7-methoxy-1-(pyridin-2-ylmethyl)quinolin-2(1H)-one] | < 600
5 | COc1cc2c(cc1-c1c(C)noc1C)cc(C(=O)Nc1cc(C)cc(C)n1)c(=O)n2Cc1ccccn1 [Compound 62, 6-(3,5-Dimethylisoxazol-4-yl)-N-(4,6-dimethylpyridin-2-yl)-7-methoxy-2-oxo-1-(pyridin-2-ylmethyl)-1,2-dihydroquinoline-3-carboxamide] | 1000 to 10000
6 | COc1cc2c(cc1-c1c(C)noc1C)cc(C(Oc1ccc(F)cc1)C(F)(F)F)c(=O)n2Cc1ccccn1 (stereo not shown) [Compound 69, 6-(3,5-Dimethylisoxazol-4-yl)-7-methoxy-1-(pyridin-2-ylmethyl)-3-(2,2,2-trifluoro-1-(4-fluorophenoxy)ethyl)quinolin-2(1H)-one] | 1000 to 10000
7 | COc1cc2c(cc1-c1c(C)noc1C)cc(C(=O)N1CCC1)c(=O)n2CCc1ccc(Cl)c(Cl)c1 [Compound 89, 3-(Azetidine-1-carbonyl)-1-(3,4-dichlorophenethyl)-6-(3,5-dimethylisoxazol-4-yl)-7-methoxyquinolin-2(1H)-one] | 1000 to 10000
8 | COc1cc2c(cc1-c1c(C)noc1C)cc(C(=O)Nc1ccc(F)cc1)c(=O)n2Cc1ccccn1 [Compound 33, 6-(3,5-Dimethylisoxazol-4-yl)-N-(4-fluorophenyl)-7-methoxy-2-oxo-1-(pyridin-2-ylmethyl)-1,2-dihydroquinoline-3-carboxamide] | 1000 to 10000
9 | COc1cc2c(cc1-c1c(C)noc1C)cc(-c1cnc(N)c(C)c1)c(=O)n2Cc1ccccn1 [Compound 108, 3-(6-Amino-5-methylpyridin-3-yl)-6-(3,5-dimethylisoxazol-4-yl)-7-methoxy-1-(pyridin-2-ylmethyl)quinolin-2(1H)-one] | < 600
10 | COc1cc2c(cc1-c1c(C)noc1C)cc(C(=O)N1CCC1)c(=O)n2CCN1CCOCC1 [Compound 85, 3-(Azetidine-1-carbonyl)-6-(3,5-dimethylisoxazol-4-yl)-7-methoxy-1-(2-morpholinoethyl)quinolin-2(1H)-one] | 1000 to 10000
11 | COc1cc2c(cc1-c1c(C)noc1C)cc(-n1cccn1)c(=O)n2Cc1ccccn1 [Compound 16, 6-(3,5-Dimethylisoxazol-4-yl)-7-methoxy-3-(1H-pyrazol-1-yl)-1-(pyridin-2-ylmethyl)quinolin-2(1H)-one] | 600 to 1000
12 | COc1cc2c(cc1-c1c(C)noc1C)cc(C(=O)N1CCC1)c(=O)n2CC(O)c1ccc(Cl)cc1 (stereo not shown) [Compound 93, 3-(Azetidine-1-carbonyl)-1-(2-(4-chlorophenyl)-2-hydroxyethyl)-6-(3,5-di-methylisoxazol-4-yl)-7-methoxyquinolin-2(1H)-one] | < 600
13 | COc1cc2c(cc1-c1c(C)noc1C)cc(CC(=O)Nc1ccc(O)cc1)c(=O)n2Cc1ccccn1 [Compound 52, 2-(6-(3,5-Dimethylisoxazol-4-yl)-7-methoxy-2-oxo-1-(pyridin-2-ylmethyl)-1,2-dihydroquinolin-3-yl)-N-(4-hydroxyphenyl)acetamide] | < 600
